# This is one part of the list.
# Experiments:
# HSkMC = human skeletal muscle cells; assay: cytotoxicity call (relative viability < 0.9); details: 10 µM
# HepG2 = assay: cytotoxicity call (relative viability < 0.9); details: 10 µM
# S. aureus RN4220 = assay: growth inhibition call (relative growth <= 0.2); details: 50 µM
Compound,cytotoxicity call (HSkMC),cytotoxicity call (HepG2),growth inhibition call (S. aureus RN4220)
CCCC#Cc1cnc2c(c1)C(=O)N([C@H](C)CO)C[C@@H](C)[C@@H](CN(C)S(=O)(=O)c1cccc(OC)c1)O2,inactive,inactive,inactive
C[C@@H]1CCCCO[C@H](CN(C)S(=O)(=O)c2ccc(F)cc2)[C@@H](C)CN([C@H](C)CO)C(=O)c2cc(NC(=O)Nc3cccc4ccccc34)ccc2O1,inactive,inactive,inactive
CC(C)NC(=O)Nc1ccc2c(c1)C(=O)N([C@H](C)CO)C[C@H](C)[C@H](CN(C)CC1CCCCC1)OCCCC[C@H](C)O2,inactive,inactive,inactive
O=C(NCCCN1CCOCC1)[C@@H]1N[C@@H]2c3ccc(C4=CCCCC4)c(=O)n3C[C@@H]2[C@H]1CO,inactive,inactive,inactive
CCS(=O)(=O)N1CC[C@]2(CC1)CN([C@H](CO)c1[nH]c3cc(ccc3c12)OC)C(=O)c1ccc(cc1)F,inactive,inactive,inactive
C[C@@H]1CN([C@@H](C)CO)C(=O)c2cc(N(C)C)ccc2O[C@H]1CN(C)S(C)(=O)=O,inactive,inactive,inactive
O=S1(=O)CCC(O)CC1,inactive,inactive,inactive
C[C@H]1CN([C@@H](C)CO)C(=O)c2cc(NC(=O)C3CC3)ccc2O[C@H]1CN(C)S(=O)(=O)c1cccs1,inactive,inactive,inactive
O=C(N[C@H]1CC[C@H](CCNS(=O)(=O)c2ccccc2)O[C@H]1CO)c1cnccn1,inactive,inactive,inactive
COc1ccc(S(=O)(=O)N(C)C[C@H]2Oc3ccc(NS(=O)(=O)c4ccccc4)cc3CC(=O)N([C@@H](C)CO)C[C@H]2C)cc1,inactive,inactive,inactive
C[C@H]1CN([C@@H](C)CO)C(=O)c2cccc(NC(=O)Nc3cccc4ccccc34)c2O[C@H]1CN(C)C(=O)Nc1ccc2c(c1)OCO2,inactive,inactive,inactive
C[C@H]1CN([C@@H](C)CO)C(=O)c2cccc(NS(C)(=O)=O)c2O[C@@H]1CN(C)C(=O)Nc1ccccc1,inactive,inactive,inactive
CC(C)(O)c1cn(-c2ccc(-c3cccc(S(C)(=O)=O)c3)cc2)c(C(C)(C)c2ccccc2Cl)n1,inactive,inactive,inactive
C[C@H]1CN([C@@H](C)CO)C(=O)c2cc(NC(=O)Nc3ccc(C(F)(F)F)cc3)ccc2O[C@H]1CN(C)C(=O)Nc1ccccc1,inactive,inactive,inactive
C[C@H](CO)N1C[C@H](C)[C@@H](CN(C)C(=O)c2ccccc2)Oc2cc(C#C[C@@H](C)O)ccc2S1(=O)=O,inactive,inactive,inactive
C=C[C@@H](N)CCC(=O)O,inactive,inactive,inactive
CC(C)CC#Cc1cnc2c(c1)C(=O)N([C@H](C)CO)C[C@@H](C)[C@@H](CN(C)C(=O)c1ccc3c(c1)OCO3)O2,inactive,inactive,inactive
NC(=O)c1ccc(N)cc1N1CCCC1,inactive,inactive,inactive
Cc1cc(C(=O)Nc2cccc3c2O[C@H](CN(C)Cc2ccncc2)[C@@H](C)CN([C@@H](C)CO)C3=O)n(C)n1,inactive,inactive,inactive
CCS(=O)(=O)N1C[C@]2(CN(C2)C(=O)Nc2c(noc2C)C)c2c([nH]c3cc(ccc23)OC)[C@H]1CO,inactive,inactive,inactive
Cc1noc(C)c1S(=O)(=O)N(C)C[C@@H]1OCCCC[C@H](C)Oc2ccc(NC(=O)Nc3cccc4ccccc34)cc2C(=O)N([C@H](C)CO)C[C@H]1C,inactive,inactive,inactive
C[C@@H]1CN([C@H](C)CO)C(=O)c2cccc(NC(=O)Nc3ccc(C(F)(F)F)cc3)c2O[C@H]1CN(C)Cc1ccccc1,inactive,inactive,inactive
CCCC(=O)Nc1ccc2c(c1)C(=O)N(C)C[C@@H](OC)[C@H](C)CN(C(=O)Cc1ccccn1)[C@H](C)CO2,inactive,inactive,inactive
CSC[C@H](N)C(=O)O,inactive,inactive,inactive
CC1=C(C(=O)O)N2C(=O)C(NC(=O)C(N)c3ccc(O)cc3)C2SC1 (stereo unspecified),inactive,inactive,inactive
CCCN(C)C[C@@H]1OCCCC[C@@H](C)Oc2ccc(NC(=O)Nc3ccc(F)cc3)cc2C(=O)N([C@H](C)CO)C[C@@H]1C,inactive,inactive,inactive
C[C@H](CO)N1C[C@H](C)[C@@H](CN(C)C(=O)Nc2ccc3c(c2)OCO3)Oc2cc(C#Cc3ccncc3)ccc2S1(=O)=O,inactive,active,inactive

# From the antibiotic and cytotoxicity screens of Wong et al. (2023)
